Some of the results follow. Many values rest on one well or one pass, so single values are uncertain.
Columns and labels:
Experiment in all cases: cell count relative to DMSO control; melanoma cells; higher = more viable cells
Conditions in all cases: library dose: low library concentration; 72 h
[1] = test system: MZ2-MEL
[2] = test system: MeWo
[3] = test system: RPMI7951
[4] = test system: RVH-421
[5] = test system: SkMel28
[6] = test system: SkMel30
[7] = test system: SkMel5
[8] = test system: UACC257
[9] = test system: UACC62
[10] = test system: WM115
[11] = test system: WM1716
[12] = test system: WM1745
[13] = test system: WM3526
[14] = test system: WM3619
[15] = test system: WM451Lu
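Also: cell number obtained by counting DAPI-stained nuclei in high-throughput microscope images with image analysis software, screen run in 1,536-well plates.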

| SMILES | cell count [1] [%] | cell count [2] [%] | cell count [3] [%] | cell count [4] [%] | cell count [5] [%] | cell count [6] [%] | cell count [7] [%] | cell count [8] [%] | cell count [9] [%] | cell count [10] [%] | cell count [11] [%] | cell count [12] [%] | cell count [13] [%] | cell count [14] [%] | cell count [15] [%] |
| --- | --- | --- | --- | --- | --- | --- | --- | --- | --- | --- | --- | --- | --- | --- | --- |
| O=C(O)c1ccc(-c2c[nH]c3ncc(-c4ccccc4)cc23)cc1C1CCCC1 + O=S(=O)(c1ccccc1)N(CC(F)(F)F)c1ccc(C(O)(C(F)(F)F)C(F)(F)F)cc1 [T0901317] (first compound 0.16 µM, partner dose 1.4 µM) | 95.2 | 85 | 106 | 101 | 92.3 | 101 | 92.5 | 115 | 87.9 | 91.7 | 92.2 | 85 | 106 | 82.8 | 98.5 |
| CC1(C)NC(=O)N(c2ccc([N+](=O)[O-])c(C(F)(F)F)c2)C1=O [nilutamide] + COC(=O)c1sccc1S(=O)(=O)Nc1ccc(Nc2ccccc2)cc1OC [GSK0660] (first compound 1 µM, partner dose 1 µM) | 99.6 | 109 | 128 | 112 | 92 | 101 | 105 | 77.4 | 114 | 98.6 | 104 | 96.6 | 88.3 | 115 | 88.8 |
| CC1(C)NC(=O)N(c2ccc([N+](=O)[O-])c(C(F)(F)F)c2)C1=O [nilutamide] + COc1cc(N2CCC(N3CCN(C)CC3)CC2)ccc1Nc1ncc(Cl)c(Nc2ccccc2S(=O)(=O)C(C)C)n1 [NVP-TAE684] (first compound 1 µM, partner dose 0.08 µM) | 103 | 92.2 | 105 | 93.8 | 103 | 72.4 | 82.5 | 83.4 | 91.7 | 94.8 | 113 | 87.5 | 65.5 | 102 | 92.5 |
| CC1(C)NC(=O)N(c2ccc([N+](=O)[O-])c(C(F)(F)F)c2)C1=O [nilutamide] + Cn1cc(/C=C2\C(=O)Nc3cccnc32)c2ccccc21 [GW441756] (first compound 1 µM, partner dose 0.4 µM) | 96.7 | 113 | 95 | 95.3 | 101 | 115 | 86.3 | 87.5 | 92.3 | 101 | 117 | 95.5 | 93.1 | 104 | 111 |
| CC1(C)NC(=O)N(c2ccc([N+](=O)[O-])c(C(F)(F)F)c2)C1=O [nilutamide] + O=S(=O)(c1ccccc1)N(CC(F)(F)F)c1ccc(C(O)(C(F)(F)F)C(F)(F)F)cc1 [T0901317] (first compound 1 µM, partner dose 1.4 µM) | 94.3 | 99.1 | 118 | 90.9 | 92.2 | 116 | 88.5 | 75.4 | 89.1 | 86.1 | 99.1 | 75.7 | 77.2 | 107 | 108 |
| O=C(O)c1ccc(-c2c[nH]c3ncc(-c4ccccc4)cc23)cc1C1CCCC1 + O=C1NC(=O)/C(=C/c2ccc(-c3ccc(F)cc3O)o2)S1 [AS252424] (first compound 0.16 µM, partner dose 1 µM) | 95.3 | 94 | 108 | 124 | 95.4 | 90.6 | 93.1 | 88.5 | 98.3 | 103 | 102 | 87.1 | 95.7 | 105 | 105 |
| CC1(C)NC(=O)N(c2ccc([N+](=O)[O-])c(C(F)(F)F)c2)C1=O [nilutamide] + CCCCCCCCCCCC1=C(O)C(=O)C=C(O)C1=O [Embelin] (first compound 1 µM, partner dose 1.2 µM) | 101 | 105 | 102 | 126 | 89.1 | 117 | 113 | 103 | 114 | 98.1 | 111 | 104 | 110 | 111 | 114 |
| O=C(Nc1cccc(Cl)c1)Nc1ncc(CCNc2ncnc3ccsc23)s1 + CCCCCCCCCCCC1=C(O)C(=O)C=C(O)C1=O [Embelin] (first compound 0.0008 µM, partner dose 1.2 µM) | 97.9 | 100 | 98.9 | 117 | 78.2 | 106 | 102 | 104 | 95.3 | 93.3 | 112 | 83.8 | 102 | 118 | 127 |
| O=C(Nc1cccc(Cl)c1)Nc1ncc(CCNc2ncnc3ccsc23)s1 + COc1ccc(-c2ccc3c(N4CCOCC4)nc(N4C[C@@H](C)O[C@@H](C)C4)nc3n2)cc1CO [KU0063794] (first compound 0.0008 µM, partner dose 0.02 µM) | 96.1 | 100 | 97.8 | 96.4 | 84.7 | 83.9 | 96.8 | 96.7 | 88.5 | 75.3 | 111 | 89.6 | 81.5 | 99.4 | 89.5 |
| C[C@@H]1CCN(C(=O)CC#N)C[C@@H]1N(C)c1ncnc2[nH]ccc12 + CCCCCCCCCCCC1=C(O)C(=O)C=C(O)C1=O [Embelin] (first compound 1 µM, partner dose 1.2 µM) | 101 | 102 | 128 | 123 | 86.6 | 101 | 95.1 | 89.8 | 117 | 104 | 108 | 108 | 106 | 108 | 91.8 |
| C[C@@H]1CCN(C(=O)CC#N)C[C@@H]1N(C)c1ncnc2[nH]ccc12 + Cn1cc(/C=C2\C(=O)Nc3cccnc32)c2ccccc21 [GW441756] (first compound 1 µM, partner dose 0.4 µM) | 96.8 | 94 | 97.2 | 119 | 89.1 | 86.8 | 97.7 | 102 | 94.5 | 102 | 118 | 89.2 | 133 | 108 | 118 |
| CC1(C)NC(=O)N(c2ccc([N+](=O)[O-])c(C(F)(F)F)c2)C1=O [nilutamide] + O=C(O)C(=O)Nc1sc2c(c1C(=O)O)CCNC2 [TCS401] (first compound 1 µM, partner dose 1.66667 µM) | 99.5 | 94.2 | 102 | 89 | 90.9 | 91.3 | 101 | 75 | 77.3 | 78.7 | 104 | 79.7 | 90.3 | 104 | 99.8 |
| CC1(C)NC(=O)N(c2ccc([N+](=O)[O-])c(C(F)(F)F)c2)C1=O [nilutamide] + CCN(CC)CCCCNc1ncc2cc(-c3cc(OC)cc(OC)c3)c(NC(=O)NC(C)(C)C)nc2n1 [PD173074] (first compound 1 µM, partner dose 0.1 µM) | 106 | 109 | 109 | 79.6 | 95.6 | 100 | 108 | 114 | 85.8 | 96.1 | 98.8 | 111 | 115 | 127 | 122 |
| O=C(O)c1ccc(-c2c[nH]c3ncc(-c4ccccc4)cc23)cc1C1CCCC1 + N#Cc1c(O)c2c(-c3ccc(-c4ccccc4O)cc3)csc2[nH]c1=O [A769662] (first compound 0.16 µM, partner dose 2 µM) | 93.9 | 95 | 90.9 | 111 | 78.7 | 109 | 102 | 109 | 80.5 | 88 | 105 | 101 | 90.8 | 106 | 61.1 |
| Cn1cncc1[C@@](N)(c1ccc(Cl)cc1)c1ccc2c(c1)c(-c1cccc(Cl)c1)cc(=O)n2C [tipifarnib] + O=S(=O)(c1ccccc1)N(CC(F)(F)F)c1ccc(C(O)(C(F)(F)F)C(F)(F)F)cc1 [T0901317] (first compound 0.01 µM, partner dose 1.4 µM) | 107 | 80.4 | 89.8 | 100 | 83.8 | 116 | 91 | 75 | 78.3 | 93.8 | 82.6 | 75.9 | 100 | 116 | 105 |
| O=C(Nc1cccc(Cl)c1)Nc1ncc(CCNc2ncnc3ccsc23)s1 + N#Cc1c(O)c2c(-c3ccc(-c4ccccc4O)cc3)csc2[nH]c1=O [A769662] (first compound 0.0008 µM, partner dose 2 µM) | 101 | 89.3 | 101 | 75.4 | 94.1 | 93.4 | 99.2 | 96.7 | 83.7 | 78.4 | 94 | 96.2 | 102 | 102 | 111 |
| O=C(Nc1cccc(Cl)c1)Nc1ncc(CCNc2ncnc3ccsc23)s1 + O=c1cc(-c2cccc3c2Sc2ccccc2S3)oc(N2CCOCC2)c1 [KU55933] (first compound 0.0008 µM, partner dose 1 µM) | 101 | 98.9 | 88.7 | 92.8 | 93.1 | 93.1 | 81.4 | 95.5 | 107 | 85.2 | 102 | 85.8 | 88.2 | 108 | 93.7 |
| CC1(C)NC(=O)N(c2ccc([N+](=O)[O-])c(C(F)(F)F)c2)C1=O [nilutamide] + CCc1ccc(CCOc2ccc(CC3SC(=O)NC3=O)cc2)nc1 [pioglitazone] (first compound 1 µM, partner dose 2 µM) | 97 | 93.9 | 101 | 102 | 83.1 | 118 | 101 | 80.4 | 99.7 | 105 | 95.3 | 91.3 | 95.6 | 77.9 | 94.7 |
| O=C(O)c1ccc(-c2c[nH]c3ncc(-c4ccccc4)cc23)cc1C1CCCC1 + CCc1ccc(CCOc2ccc(CC3SC(=O)NC3=O)cc2)nc1 [pioglitazone] (first compound 0.16 µM, partner dose 2 µM) | 90.4 | 89 | 92.5 | 98.9 | 86.1 | 97.2 | 80.6 | 92.9 | 82.8 | 98.9 | 100 | 70.1 | 86.5 | 103 | 91.6 |
| O=C(Nc1cccc(Cl)c1)Nc1ncc(CCNc2ncnc3ccsc23)s1 + Oc1nc(-c2ccc(C(F)(F)F)cc2)nc2c1CSCC2 [XAV939] (first compound 0.0008 µM, partner dose 2 µM) | 93.3 | 100 | 88.7 | 105 | 80.2 | 114 | 85.9 | 73.3 | 108 | 73.5 | 67.9 | 75 | 104 | 108 | 103 |
